Laboratory results from paper PMC12136788.
Some of the results follow.

T1: UNK ZnF1-3 (human, UniProt Q9C0B0 31-174)
T1 sequence: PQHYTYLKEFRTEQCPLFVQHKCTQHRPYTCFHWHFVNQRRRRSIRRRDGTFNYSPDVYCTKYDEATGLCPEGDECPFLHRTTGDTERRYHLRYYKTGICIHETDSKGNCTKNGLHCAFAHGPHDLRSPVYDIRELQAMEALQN

B1: chr1:157160411:157160412:-_ENSMUSG00000026469_ENSMUST00000027741|mus_hu|motif|central (ssRNA)
RNA: GGGAGUUCUACAGUCCGACGAUCGAAUUCAAUCAGAAGAAAGCCACCCCGAUAGAUUCUUAUCAAGGGCCAUAUACUUCGGUCUGUUUCAAGUUUAAAUACAGCGGCAAGCACAAGGGUAAUAUUCAGUACAAUGAAUAUUCCCAACAGAGGAUUGAGCAUCA
B2: chrX:98862621:98862622:+_ENSMUSG00000034160_ENSMUST00000044475|mus_hu|mus_mus_mus_hu_False|8_8 (ssRNA)
RNA: GGGAGUUCUACAGUCCGACGAUCCUGCAUCUCCUUUAGAGUGUUUCCCAUAUUAGAGUAGGCAUCAGCAAAGGUAGGACUGAUUCGAAUAGCCUCCUUAUAAUGCAUCAGAGCUUCCUGCAGUUUUCCCUGCUGUUGCAGUACCAACAGAGGAUUGAGCAUCA
B3: 86271393_86272742_3322_3pUTR_ENSG00000068654_ENST00000263857|human|control|control (ssRNA)
RNA: GGGAGUUCUACAGUCCGACGAUCCACGACCAGCCCCUCUAGGUGCUUGAUGAUGCACCUUUGGAGAUAGCCUGAGCGGCUGGUUUUCACAGCAGUGUCCACCAGGCCCUCUCGUCCUGCCAUGCAGUGGAAGAAGAACUCAGGCAACAGAGGAUUGAGCAUCA
B4: chrX:69798090:69798091:-_ENSMUSG00000031343_ENSMUST00000055966|mus_mus|mus_mus_mus_hu_False|28_28 (ssRNA)
RNA: GGGAGUUCUACAGUCCGACGAUCAAGUCCCCGGGUUCUUGUCGUCUUGAUUCCCCUUGACCAGUGGUUCCAGGGAGAAUAUUAAUCAGGAAAAGAAUCCCAAGGCUGGUCACAUAACAGUGACUUGUUUGUGUGAUUAUCAUCCAACAGAGGAUUGAGCAUCA
B5: chr7:116084223:116084224:+_ENSMUSG00000031029_ENSMUST00000033342|mus_mus|motif|central (ssRNA)
RNA: GGGAGUUCUACAGUCCGACGAUCUGAGGCCCCUCCCACUUGUUGUAAGUCACUUGAGAGUCCAAUCACCCGGUUGGGGCGGAAACACGUCUUCAUGAUGAGGUCAACUCCAAUGCGUUCAGUGUCAUAAUACGCGUACUUCACCAACAGAGGAUUGAGCAUCA
B6: chr4:190862081:190862082:+_ENSG00000109536_ENST00000226798|hu_hu|FALSE|FALSE (ssRNA)
RNA: GGGAGUUCUACAGUCCGACGAUCGGCUGAGGCCGGUUCUGGACGAGUAUGUGAGUCGGGGCAGCACAGGGGCGCGGAGAAACAGAAGCGGACGCGAAAUAAACACUCCCUGACAGCCUACGUCUCUGUAGAACCCGCCUCCGUCAACAGAGGAUUGAGCAUCA
B7: chr9:111179681:111179682:+_ENSMUSG00000046785_ENSMUST00000060711|mus_hu|FALSE|FALSE (ssRNA)
RNA: GGGAGUUCUACAGUCCGACGAUCAACUUAAUAUUACAUAGUGGAUUUGGUGUGUAUAUUUGGUUUUGAAUCCUGAGUUUACUACUUACUGUGUUUACCAGGGAAAACCGCAAUUUGUUAUCCUUCUCUCCUUUCAUACAACAGCAACAGAGGAUUGAGCAUCA
B8: chr6:64423786:64423787:+_ENSG00000118482_ENST00000393387|hu_hu|FALSE|FALSE (ssRNA)
RNA: GGGAGUUCUACAGUCCGACGAUCAACAAAUCUUUGAAUAUACAGCAAUGUAAAACUUUUAAAAAUAUUAAAUUCCUAUAACUAGGGACCGUUGGUAUGAAGAAGGGAUGAUGAGCACUGGUACAGAGCACUCUGUACCAACACCAACAGAGGAUUGAGCAUCA
B9: chr6:31635678:31635679:+_ENSG00000204435_ENST00000375882|hu_mus|FALSE|FALSE (ssRNA)
RNA: GGGAGUUCUACAGUCCGACGAUCUAAGAUCAUGUCCAGAGCUUGUCGAUAGUGAGGCACCUGCUCAUUGAGUCCAGUAAGAUUAAAUUUGUCCUGGAUGUAGUCUUCAUCCACCUCACAGAAGAAUUCAUUACCACGGAGCCCCAACAGAGGAUUGAGCAUCA
B10: chr7:138235809:138235810:+_ENSG00000122779_ENST00000415680|hu_hu|motif|central (ssRNA)
RNA: GGGAGUUCUACAGUCCGACGAUCGGAUGCAUCACACCUUGCACGAAGGAGGUGCCGUAACCGGUAUGUAAUCAGUCGUUUGCGGUAAAGUAAUGCUGUACUGCUGCCACUGGAAACUGCCCAUUUAGAAAAAUGCAUGACAUGCAACAGAGGAUUGAGCAUCA
B11: chr8:101931661:101931662:-_ENSG00000164924_ENST00000353245|hu_hu|FALSE|FALSE (ssRNA)
RNA: GGGAGUUCUACAGUCCGACGAUCUAAGUUAGAAAAUGCCAUAUGCCAAAAUUUUAAAUGGAACACACUACAUUUUUUUCUAAUCAAUCCCCCCCUCUCCCAGAAAAAAUAGGAACUCAUUUUUUUCAGGGUGGGGAGGAAGAGCAACAGAGGAUUGAGCAUCA
B12: chr7:141445308:141445309:+_ENSG00000106028_ENST00000265304|hu_hu|hu_hu_hu_mus_False|38_88 (ssRNA)
RNA: GGGAGUUCUACAGUCCGACGAUCUAUGAUUGUUGUUGCUUGCCGCCUCACAUUAUUUUUAUCCAUGUACUCGCCAUAGUCCACUUUCCCUUCCACAUAAAUUCGAGCCCCCUUUUUCACAUACUGAUAUGCCACAUCUCUGAGCAACAGAGGAUUGAGCAUCA
B13: chr16:94690367:94690368:+_ENSMUSG00000040785_ENSMUST00000117648|mus_hu|motif|central (ssRNA)
RNA: GGGAGUUCUACAGUCCGACGAUCCUAUAUUUACCACUGUCUAAAAGUCACAAAACAAUAUCUAAUUUUUUCAUGGUUUCGGAUGCAGUUACAGUUUUGUUCUUAGGUCACAGUACAAGACUGCAUGCAUACUUUACACAAAUACAACAGAGGAUUGAGCAUCA
B14: chr1:45244325:45244326:+_ENSG00000142937_ENST00000396651|hu_hu|FALSE|FALSE (ssRNA)
RNA: GGGAGUUCUACAGUCCGACGAUCUUACAUGGGUGAAGACAAAACAAGGAUUUAUUUGCCUUUGCGGGCCUUGAUUUUCCUAAGAUAGAACUCCAACUCUUUGCCCUCUAGCACAUAGCCAUCUGCUCGGCCACACUGUCCCGGCAACAGAGGAUUGAGCAUCA

target: T1, UNK ZnF1-3; test: nsRBNS (natural sequence RNA bind-n-seq); RBNS binding buffer (assumed for nsRBNS): 25 mM Tris pH 7.5, 150 mM KCl, 3 mM MgCl2, 0.01% Triton X-100, 500 ug/ml BSA, 20 U/ml SUPERase-In, 4 C; UNK is unkempt and MSI1 is Musashi-1; names of the RNAs are library labels; protein concentration not given here; high values mean tight binding

Compared with B1, B2 is lower in binding signal: 1.22 enrichment R for the first, 1.17 enrichment R for the second.

First: B3
Second: B4
The binding signal of the first is higher: 0.588 enrichment R for the first, 0.537 enrichment R for the second.

Compared with B5, B6 is lower in binding signal: 0.972 enrichment R for the first, 0.622 enrichment R for the second.

Going from B7 to B8, the binding signal rises from 0.702 enrichment R to 1.32 enrichment R.

Going from B9 to B10, the binding signal falls from 1.4 enrichment R to 1.13 enrichment R.

First: B11
Second: B12
The binding signal of the first is lower: 0.576 enrichment R for the first, 0.735 enrichment R for the second.

First: B13
Second: B14
The binding signal of the first is lower: 0.512 enrichment R for the first, 1.01 enrichment R for the second.
